# Reference: PMC4336329 (PLoS ONE, 2015)
# Out of some 310,000 compounds screened, about 14,000 (4.5%) showed an effect of 50% or more. The effect is printed as a negative number. Some of the results follow.
# Molecular target: human ether-à-go-go-related gene (hERG) potassium channel (human, UniProt Q12809)
# Experiment: primary screen, population patch clamp on CHO cells stably expressing hERG
# 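Also: peak tail current of the secondary pulse compared with the same well before compound.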
# Sequence of human ether-à-go-go-related gene (hERG) potassium channel (Q12809 whole entry, looked up): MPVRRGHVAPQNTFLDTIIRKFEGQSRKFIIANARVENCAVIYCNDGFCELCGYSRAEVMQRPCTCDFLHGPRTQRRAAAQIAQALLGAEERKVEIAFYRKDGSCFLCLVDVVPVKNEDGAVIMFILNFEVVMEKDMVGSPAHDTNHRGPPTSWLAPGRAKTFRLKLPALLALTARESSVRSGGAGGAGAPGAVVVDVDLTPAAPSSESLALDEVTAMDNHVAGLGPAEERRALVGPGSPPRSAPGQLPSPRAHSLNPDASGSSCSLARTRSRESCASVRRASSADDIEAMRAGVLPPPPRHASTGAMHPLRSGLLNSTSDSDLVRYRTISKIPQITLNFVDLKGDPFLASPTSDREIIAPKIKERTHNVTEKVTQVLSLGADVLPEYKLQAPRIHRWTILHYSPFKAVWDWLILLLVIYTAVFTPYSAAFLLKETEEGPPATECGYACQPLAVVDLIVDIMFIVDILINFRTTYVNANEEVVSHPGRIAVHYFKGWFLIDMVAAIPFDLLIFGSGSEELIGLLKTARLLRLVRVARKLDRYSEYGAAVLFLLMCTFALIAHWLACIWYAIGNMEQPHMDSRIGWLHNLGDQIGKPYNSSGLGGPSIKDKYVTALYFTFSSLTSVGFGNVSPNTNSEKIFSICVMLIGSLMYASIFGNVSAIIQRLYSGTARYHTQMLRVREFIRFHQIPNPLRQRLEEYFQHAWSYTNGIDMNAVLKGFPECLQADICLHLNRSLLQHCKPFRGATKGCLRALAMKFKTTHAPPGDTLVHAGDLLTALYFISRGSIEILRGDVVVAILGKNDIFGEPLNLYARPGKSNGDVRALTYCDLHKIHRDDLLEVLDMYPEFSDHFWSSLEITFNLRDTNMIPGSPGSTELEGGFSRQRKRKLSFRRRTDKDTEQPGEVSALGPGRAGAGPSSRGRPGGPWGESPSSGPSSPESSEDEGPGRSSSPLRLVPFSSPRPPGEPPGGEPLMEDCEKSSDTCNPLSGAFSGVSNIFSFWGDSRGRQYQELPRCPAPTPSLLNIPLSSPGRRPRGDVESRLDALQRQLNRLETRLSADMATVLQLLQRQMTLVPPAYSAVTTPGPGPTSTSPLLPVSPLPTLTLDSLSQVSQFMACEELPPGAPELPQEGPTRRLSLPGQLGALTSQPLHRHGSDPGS
row,SMILES,"hERG current change (%, negative = inhibition) at 10uM [%]"
1,CCC(NC(=O)C1CCC1)c1ccccc1 (stereo not drawn),12.6
2,Cc1ccc(N=C2SCCCN2C(=O)c2ccco2)cc1Cl,1.54
3,CC1CCCCN1C(=O)CCNC(=O)Cn1cnc2ccccc2c1=O (stereo not drawn),17.3
4,CC(C)(C)c1ccc(C(=O)N/N=C/c2ccccn2)cc1,-5.6
5,O=CN1CCCN(Cc2nc(Cc3ccccc3F)no2)CC1,16.1
6,COc1cccc(OC)c1C(=O)NC(C)c1ccccc1 (stereo not drawn),10.7
7,CCOCCCn1c(=NC(C)=O)c(C(=O)OCC)cc2c(=O)n3ccccc3nc21,-22.9
8,CSC1=NSC2=NC(=O)/C(=C/c3coc4ccc(O)cc4c3=O)C(=N)N12,4.29
9,CCCCN1CC(O)=C(c2nc3ccccc3[nH]2)C1=N,2.68
10,CCOC(=O)c1cc2[nH]c3ccccc3c2[n+](-c2ccc([N+](=O)[O-])cc2)c1N.O=C([O-])C(F)(F)F,-58.4
11,COc1ccccc1C(=O)Nc1nnc(S(=O)(=O)N(C)Cc2ccccc2)s1,3.88
12,Cc1ccc2cc(C)c3nnc(SCC(=O)Nc4nc5c(s4)CCCC5)n3c2c1C,-53.8
13,CCC(C)(C)NC(=O)C(c1ccccn1)N(C(=O)c1csnn1)C1CCCCC1 (stereo not drawn),6.56
14,O=C(Nc1ccc(Cl)cc1)Nc1nnc(CSCc2ccc(Cl)cc2)s1,14.6
15,O=C(CN1C(=O)c2ccccc2C1=O)Nc1ccccc1F,-6.46
16,Cc1ccc(C(=O)N2CCN(Cc3ccc4c(c3)OCO4)CC2)c(Cl)c1,-18.6
17,COc1ccc(C2C(C(=O)c3ccco3)=C(O)C(=O)N2CC2CCCO2)cc1OC (stereo not drawn),24.1
18,CCC(=O)Nc1ccc(C(=O)COC(=O)C(CCSC)NC(=O)COc2ccccc2)cc1 (stereo not drawn),5.53
19,COc1ccc(C(=O)Nc2ccc3ccccc3n2)c(OC)c1OC,17.8

row,SMILES,"hERG current change (%, negative = inhibition) at 10uM [%]"
1,CCCCN(CC)C(=S)Nc1ccc2nc(N3CCN(C)CC3)cc(C)c2c1,-56.3
2,COc1cccc(C2N(c3ccccc3)CCN2c2ccccc2)c1OC,4.77
3,Cc1cccc(C(=O)O/N=C(\N)c2ccccn2)c1,2.89
4,Cc1[nH]n(-c2ccccc2)c(=O)c1C=NC1CCCCCC1,-1.2
5,C=CCn1c(Cc2cccc3ccccc23)n[nH]c1=S,6.09
6,O=C(CCS(=O)(=O)Cc1ccccc1)Nc1ncc([N+](=O)[O-])s1,10.8
7,O=C1N=c2ccc([N+](=O)[O-])cc2=C1c1sc(=O)[nH]c1O,14.6
8,COCCc1nc2ccc(C(=O)NCc3cccc(-n4cccn4)c3)cc2o1,1.28
9,Cc1cccnc1,17.7
10,COc1cc2c(cc1OC)-c1cc(N3CCCCCC3)nc(=O)n1CC2,1.22
11,CNc1ccc(NC(C)=O)cc1[N+](=O)[O-],1.68
12,CC(C)C(NC(=O)Cc1ccccc1)C(=O)N1CCN(c2cccc(Cl)c2)CC1 (stereo not drawn),-34.4
13,COc1ccc(N2C(=O)CC(N(CCc3ccc(OC)c(OC)c3)C(=S)Nc3ccccc3)C2=O)cc1 (stereo not drawn),-12
14,CC(=O)c1ccc(OC(C)C)c(CSc2nc(O)cc(=O)[nH]2)c1,17.1
15,CC(=O)c1cc2c(cc1NC(=O)c1cc(C)nn1-c1ccccc1)OCO2,-17.2
16,Cc1ccc(S(=O)(=O)O/N=C2/CCCc3occc32)cc1,9.47
17,Cc1ccccc1CCNC(=O)Cn1nc(C)c2c(C)n(-c3ccccc3)nc2c1=O,-28.7
18,COc1ccc(S(=O)(=O)N2CCOCC2)cc1NC(=O)COC(=O)C1CC2CCCC(C1)C2=O (stereo not drawn),-24
19,CCN(CC)CCO,19.6

row,SMILES,"hERG current change (%, negative = inhibition) at 10uM [%]"
1,O=C(OCc1ccccc1F)c1cc([N+](=O)[O-])ccc1N1CCOCC1,-47.9
2,CCOC(=O)[C@@H]1[C@H]2COc3ccc(Br)cc3[C@@H]2N2C(=O)N(c3ccc(F)cc3)C(=O)[C@]12C,-7.2
3,CN1C(=O)c2cccc(NC(=O)Cc3ccccc3)c2C1=O,10.5
4,CNC(=S)N1CCC(NC(=O)C(Cc2ccc(OC)cc2)NC(C)=O)CC1 (stereo not drawn),20.5
5,O=C(COc1ccccc1)NC1CCCc2ccccc21 (stereo not drawn),-19.3
6,CN(C)S(=O)(=O)c1cc(NC(=O)CNCc2ccccc2)ccc1Cl,-10.2
7,CCC(C)n1cnc2c(c1=O)c1nc3ccccc3nc1n2-c1ccc2c(c1)OCCO2 (stereo not drawn),-13.3
8,Cn1c(=O)[nH]c(=O)c2c1nc(N/N=C/c1ccncc1)n2Cc1ccc(Cl)cc1,15.1
9,CC(=O)c1c(CC(=O)O)[nH]n(-c2nc3ccccc3s2)c1=O,3.17
10,COc1ccc(OCCNC(=O)c2ccccc2OCC(=O)N2CCCCC2)cc1,-4.89
11,CCSc1nnc(NS(=O)(=O)c2ccc(C)cc2)s1,10.6
12,CCOc1ccc(C(C)=O)cc1N1C(=O)C2C3C=CC(O3)C2C1=O (stereo not drawn),10.6
13,Cc1cc(NC(=O)CSc2nnnn2-c2cc(Cl)ccc2C)no1,16.3
14,COc1cc(C(O)C(=O)O)ccc1O (stereo not drawn),-0.629
15,COc1ccc(Cl)cc1NC(=O)CSc1nnc(-c2ccco2)o1,7.36
16,Cc1ccc2c(c1)c(N=Nc1ccc([N+](=O)[O-])cc1)c(O)n2C,17.1
17,CSc1ncc(Cl)c(C(=O)[O-])n1.[NH3+]CCc1ccccc1,-2.11
18,CCS(=O)c1scc(-c2ccc(Cl)cc2)c1C#N (stereo not drawn),-37.8
19,CC(=O)NC(C)c1ccc(Cl)c(Cl)c1 (stereo not drawn),13.1
